# Results reported in the supplement of paper PMC8728848.
# This is one part of the list.
# B1: MSMEG3662-2a (Mycobacterium smegmatis), A0QYH7_MYCS2 (protein)
# chain: MGDTLTAGQKLERGGSLQSGNGAYTLTLQDDGNLVLYARDKAVWSTGTNGQDVVRAEVQTDGNFVLYTAEKPVWHTDTKGKKEVKLVLQDDRNLVLYAKDGPAWSSKTDTTEPPPPAPEPEKEAEVAPAAAEEAAPAPVAEPAPAEPAPAAPPPAPPAPRTYTVVSGDTLWAIAERFYGDGSKYQQIADASGIANPDLIHPGQVLTIP
# How the values were obtained:
# Test in all cases: glycan array binding signal (z-score within array); higher = stronger binding
# Settings in all cases: glycan notation: IUPAC condensed, linker removed
# [1] = target: GlcNAc(b1-3)Gal(b1-4)GlcNAc(b1-3)Gal(b1-4)GlcNAc(b1-3)Gal(b1-4)GlcNAc(b1-3)Gal(b1-4)GlcNAc(b1-2)[GlcNAc(b1-3)Gal(b1-4)GlcNAc(b1-3)Gal(b1-4)GlcNAc(b1-3)Gal(b1-4)GlcNAc(b1-3)Gal(b1-4)GlcNAc(b1-6)]Man(a1-6)[GlcNAc(b1-3)Gal(b1-4)GlcNAc(b1-3)Gal(b1-4)GlcNAc(b1-3)Gal(b1-4)GlcNAc(b1-3)Gal(b1-4)GlcNAc(b1-2)Man(a1-3)]Man(b1-4)GlcNAc(b1-4)[Fuc(a1-6)]GlcNAc
# Outline: (§1)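 Negative Z-scores can be read as non-binding. The Z-score is calculated within each array and then averaged across arrays of one protein sequence at different concentrations or buffers and across linkers. Arrays, 3228 in all, were curated from the Consortium for Functional Glycomics database and kept only where the protein sequence was available.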
# [2] = target: GlcNAc(b1-3)Gal(b1-4)GlcNAc(b1-3)Gal(b1-4)GlcNAc(b1-3)GalNAc
# Outline: as §1
# [3] = target: GlcNAc(b1-3)Gal(b1-4)GlcNAc(b1-3)GalNAc
# Outline: as §1
# [4] = target: GlcNAc(b1-3)Gal(b1-4)GlcNAc(b1-3)[GlcNAc(b1-3)Gal(b1-4)GlcNAc(b1-3)]GalNAc
# Outline: as §1
# [5] = target: GlcNAc(b1-3)Gal(b1-4)GlcNAc(b1-6)[Gal(b1-3)]GalNAc
# Outline: as §1
# [6] = target: GlcNAc(b1-3)Gal(b1-4)GlcNAc(b1-6)[GlcNAc(b1-3)Gal(b1-3)]GalNAc
# Outline: as §1
# [7] = target: GlcNAc(b1-3)Gal(b1-4)GlcNAc(b1-6)[GlcNAc(b1-3)]Gal(b1-4)GlcNAc
# Outline: as §1
# GlcNAc(b1-3)GalNAc = target: GlcNAc(b1-3)GalNAc
# Outline: as §1
# GlcNAc(b1-3)Man = target: GlcNAc(b1-3)Man
# Outline: as §1
# [8] = target: GlcNAc(b1-3)[GlcNAc(b1-4)][GlcNAc(b1-6)]GlcNAc
# Outline: as §1
# [9] = target: GlcNAc(b1-3)[GlcNAc(b1-6)]Gal(b1-4)GlcNAc
# Outline: as §1
# [10] = target: GlcNAc(b1-3)[GlcNAc(b1-6)]GalNAc
# Outline: as §1
# [11] = target: GlcNAc(b1-4)Gal(b1-4)GlcNAc
# Outline: as §1
# GlcNAc(b1-4)GlcNAc = target: GlcNAc(b1-4)GlcNAc
# Outline: as §1
# [12] = target: GlcNAc(b1-4)GlcNAc(b1-4)GlcNAc
# Outline: as §1
# [13] = target: GlcNAc(b1-4)GlcNAc(b1-4)GlcNAc(b1-4)GlcNAc(b1-4)GlcNAc
# Outline: as §1
# [14] = target: GlcNAc(b1-4)GlcNAc(b1-4)GlcNAc(b1-4)GlcNAc(b1-4)GlcNAc(b1-4)GlcNAc
# Outline: as §1
# [15] = target: GlcNAc(b1-4)[GlcNAc(b1-6)]GalNAc
# Outline: as §1
# [16] = target: GlcNAc(b1-6)Gal(b1-4)GlcNAc
# Outline: as §1
# GlcNAc(b1-6)GalNAc = target: GlcNAc(b1-6)GalNAc
# Outline: as §1
# [17] = target: GlcNAc6S(b1-3)Gal(b1-4)GlcNAc
# Outline: as §1
# Kdn(a2-3)Gal(b1-3)GalNAc = target: Kdn(a2-3)Gal(b1-3)GalNAc
# Outline: as §1
# Kdn(a2-3)Gal(b1-3)GlcNAc = target: Kdn(a2-3)Gal(b1-3)GlcNAc
# Outline: as §1
# Kdn(a2-3)Gal(b1-4)Glc = target: Kdn(a2-3)Gal(b1-4)Glc
# Outline: as §1
# Kdn(a2-3)Gal(b1-4)GlcNAc = target: Kdn(a2-3)Gal(b1-4)GlcNAc
# Outline: as §1
# [18] = target: Kdn(a2-3)Gal(b1-4)[Fuc(a1-3)]GlcNAc
# Outline: as §1
# Kdn(a2-6)Gal(b1-4)GlcNAc = target: Kdn(a2-6)Gal(b1-4)GlcNAc
# Outline: as §1
# [19] = target: Man(a1-2)Man(a1-2)Man(a1-3)Man
# Outline: as §1
# [20] = target: Man(a1-2)Man(a1-2)Man(a1-6)[Man(a1-3)]Man
# Outline: as §1
# Man(a1-2)Man(a1-3)Man = target: Man(a1-2)Man(a1-3)Man
# Outline: as §1
# [21] = target: Man(a1-2)Man(a1-3)[Man(a1-2)Man(a1-6)]Man
# Outline: as §1
# [22] = target: Man(a1-2)Man(a1-3)[Man(a1-2)Man(a1-6)]Man(a1-6)[Man(a1-2)Man(a1-2)Man(a1-3)]Man
# Outline: as §1
# [23] = target: Man(a1-2)Man(a1-3)[Man(a1-2)Man(a1-6)]Man(a1-6)[Man(a1-2)Man(a1-2)Man(a1-3)]Man(b1-4)GlcNAc(b1-4)GlcNAc
# Outline: as §1
# [24] = target: Man(a1-2)Man(a1-3)[Man(a1-6)]Man(a1-6)[Man(a1-2)Man(a1-3)]Man(b1-4)GlcNAc(b1-4)GlcNAc
# Outline: as §1
# [25] = target: Man(a1-2)Man(a1-6)[Man(a1-3)]Man(a1-6)[Man(a1-2)Man(a1-2)Man(a1-3)]Man
# Outline: as §1
# [26] = target: Man(a1-2)Man(a1-6)[Man(a1-3)]Man(a1-6)[Man(a1-2)Man(a1-2)Man(a1-3)]Man(b1-4)GlcNAc(b1-4)GlcNAc
# Outline: as §1
# Man(a1-3)[Man(a1-6)]Man = target: Man(a1-3)[Man(a1-6)]Man
# Outline: as §1
# [27] = target: Man(a1-3)[Man(a1-6)]Man(a1-6)[Man(a1-2)Man(a1-3)]Man(b1-4)GlcNAc(b1-4)GlcNAc
# Outline: as §1
# [28] = target: Man(a1-3)[Man(a1-6)]Man(a1-6)[Man(a1-3)]Man
# Outline: as §1
# [29] = target: Man(a1-3)[Man(a1-6)]Man(a1-6)[Man(a1-3)]Man(b1-4)GlcNAc(b1-4)GlcNAc
# Outline: as §1
# [30] = target: Man(a1-3)[Man(a1-6)]Man(b1-4)GlcNAc(b1-4)GlcNAc
# Outline: as §1
# [31] = target: Man(a1-3)[Man(a1-6)]Man(b1-4)GlcNAc(b1-4)[Fuc(a1-6)]GlcNAc
# Outline: as §1
# Man(a1-6)Man = target: Man(a1-6)Man
# Outline: as §1
# Man(b1-4)GlcNAc = target: Man(b1-4)GlcNAc
# Outline: as §1
# MurNAc(b1-4)GlcNAc = target: MurNAc(b1-4)GlcNAc
# Outline: as §1
binder,measurement,setting,value
B1,glycan array binding signal (z-score),[1],0.237
same,glycan array binding signal (z-score),[2],-0.127
same,glycan array binding signal (z-score),[3],-0.121
same,glycan array binding signal (z-score),[4],-0.116
same,glycan array binding signal (z-score),[5],-0.128
same,glycan array binding signal (z-score),[6],-0.14
same,glycan array binding signal (z-score),[7],-0.127
same,glycan array binding signal (z-score),GlcNAc(b1-3)GalNAc,-0.097
same,glycan array binding signal (z-score),GlcNAc(b1-3)Man,-0.106
same,glycan array binding signal (z-score),[8],-0.054
same,glycan array binding signal (z-score),[9],0.009
same,glycan array binding signal (z-score),[10],0.009
same,glycan array binding signal (z-score),[11],-0.146
same,glycan array binding signal (z-score),GlcNAc(b1-4)GlcNAc,0.084
same,glycan array binding signal (z-score),[12],3.59
same,glycan array binding signal (z-score),[13],8.12
same,glycan array binding signal (z-score),[14],13.9
same,glycan array binding signal (z-score),[15],-0.07
same,glycan array binding signal (z-score),[16],-0.053
same,glycan array binding signal (z-score),GlcNAc(b1-6)GalNAc,-0.169
same,glycan array binding signal (z-score),[17],-0.073
same,glycan array binding signal (z-score),Kdn(a2-3)Gal(b1-3)GalNAc,-0.107
same,glycan array binding signal (z-score),Kdn(a2-3)Gal(b1-3)GlcNAc,-0.09
same,glycan array binding signal (z-score),Kdn(a2-3)Gal(b1-4)Glc,-0.211
same,glycan array binding signal (z-score),Kdn(a2-3)Gal(b1-4)GlcNAc,0.094
same,glycan array binding signal (z-score),[18],-0.19
same,glycan array binding signal (z-score),Kdn(a2-6)Gal(b1-4)GlcNAc,-0.226
same,glycan array binding signal (z-score),[19],0.026
same,glycan array binding signal (z-score),[20],-0.193
same,glycan array binding signal (z-score),Man(a1-2)Man(a1-3)Man,-0.062
same,glycan array binding signal (z-score),[21],-0.056
same,glycan array binding signal (z-score),[22],-0.095
same,glycan array binding signal (z-score),[23],-0.191
same,glycan array binding signal (z-score),[24],-0.177
same,glycan array binding signal (z-score),[25],-0.157
same,glycan array binding signal (z-score),[26],-0.139
same,glycan array binding signal (z-score),Man(a1-3)[Man(a1-6)]Man,0.092
same,glycan array binding signal (z-score),[27],-0.056
same,glycan array binding signal (z-score),[28],-0.103
same,glycan array binding signal (z-score),[29],-0.08
same,glycan array binding signal (z-score),[30],0.046
same,glycan array binding signal (z-score),[31],0.07
same,glycan array binding signal (z-score),Man(a1-6)Man,-0.07
same,glycan array binding signal (z-score),Man(b1-4)GlcNAc,-0.112
same,glycan array binding signal (z-score),MurNAc(b1-4)GlcNAc,1.49
